The record followed here is publication PMC4336329 (PLoS ONE, 2015).

SMILES strings stand for the structures. Screen size: about 310,000 compounds; about 14,000 (4.5%) showed an effect of 50% or more. Effects have a minus sign here. The list shows a part of the results.
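Further: peak tail current of the secondary pulse compared with the same well before compound.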

human ether-à-go-go-related gene (hERG) potassium channel, sequence (Q12809 whole entry, looked up): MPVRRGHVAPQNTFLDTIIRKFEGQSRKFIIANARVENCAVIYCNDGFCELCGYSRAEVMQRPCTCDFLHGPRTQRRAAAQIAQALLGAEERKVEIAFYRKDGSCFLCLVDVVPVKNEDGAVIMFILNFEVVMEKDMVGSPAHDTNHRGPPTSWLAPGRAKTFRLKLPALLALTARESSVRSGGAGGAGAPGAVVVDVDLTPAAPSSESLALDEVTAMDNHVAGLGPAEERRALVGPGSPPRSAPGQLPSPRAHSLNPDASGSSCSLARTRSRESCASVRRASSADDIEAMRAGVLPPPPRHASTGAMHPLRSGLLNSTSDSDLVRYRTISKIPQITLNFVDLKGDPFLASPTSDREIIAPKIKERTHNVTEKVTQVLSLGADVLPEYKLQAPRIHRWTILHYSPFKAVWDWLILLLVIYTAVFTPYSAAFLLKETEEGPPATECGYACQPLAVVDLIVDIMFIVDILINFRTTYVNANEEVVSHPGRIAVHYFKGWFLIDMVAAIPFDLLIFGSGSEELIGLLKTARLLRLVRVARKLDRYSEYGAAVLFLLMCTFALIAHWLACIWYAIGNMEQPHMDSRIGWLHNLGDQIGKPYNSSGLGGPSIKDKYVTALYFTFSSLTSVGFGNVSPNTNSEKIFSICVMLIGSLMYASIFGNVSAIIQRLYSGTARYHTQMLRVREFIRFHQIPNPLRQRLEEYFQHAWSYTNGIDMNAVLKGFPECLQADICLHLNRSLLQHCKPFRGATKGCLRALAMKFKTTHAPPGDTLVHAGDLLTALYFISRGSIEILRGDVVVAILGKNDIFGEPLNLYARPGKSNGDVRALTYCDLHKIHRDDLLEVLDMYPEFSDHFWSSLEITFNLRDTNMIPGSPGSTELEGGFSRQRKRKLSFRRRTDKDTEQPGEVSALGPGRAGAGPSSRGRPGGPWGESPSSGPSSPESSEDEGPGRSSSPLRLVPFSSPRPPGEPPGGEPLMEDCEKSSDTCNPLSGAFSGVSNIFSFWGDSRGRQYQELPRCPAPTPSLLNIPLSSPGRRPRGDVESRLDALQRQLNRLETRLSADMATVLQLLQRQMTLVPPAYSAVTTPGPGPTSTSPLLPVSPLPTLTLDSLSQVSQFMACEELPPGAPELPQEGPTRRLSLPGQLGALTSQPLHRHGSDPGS

The assay concerns the target human ether-à-go-go-related gene (hERG) potassium channel (human, UniProt Q12809). Nature of the assay: primary screen, population patch clamp on CHO cells stably expressing hERG.
Consider `CCOC(=O)N1CCN(S(=O)(=O)N2CCCC(C(=O)NCCCN3CCC(C)CC3)C2)CC1` (stereo not drawn), for which the “hERG current change (%, negative = inhibition) at 10uM” value is 16.2%.
With `COc1ccc(C2=CC3=C(Br)C(=O)C(C)(OC(=O)c4ccc(Cl)nc4)C(=O)C3=CO2)cc1` (stereo not drawn), the “hERG current change (%, negative = inhibition) at 10uM” value was determined as 0.675%.
For the molecule `CC(=O)NCCSC(=O)c1ccc(F)cc1`, the “hERG current change (%, negative = inhibition) at 10uM” value worked out at 11.3%.
As for `CCOC(=O)N1CCN(C(=O)CCc2ccc(S(=O)(=O)NC(C)(C)C)cc2)CC1`, the “hERG current change (%, negative = inhibition) at 10uM” value amounted to 11.3%.
Turning to `CC(C)Oc1cccc(NC(=O)c2cccn(Cc3ccc4c(c3)OC(F)(F)O4)c2=O)c1`, the “hERG current change (%, negative = inhibition) at 10uM” value was 3.02%.
Take `CCOC(=O)c1ccc(N2C(=O)c3n[nH]c(C)c3C2c2ccc(OC)c(OC)c2)cc1` (stereo not drawn): the “hERG current change (%, negative = inhibition) at 10uM” value is -14.2%.
Consider `CCOc1ccc(S(=O)(=O)N2CCC(C(=O)NCC3CCCO3)CC2)cc1` (stereo not drawn), for which the “hERG current change (%, negative = inhibition) at 10uM” value was -16%.
Regarding `CCCC/C(O)=C1\C(=O)CCCC1=NCCc1c(C)[nH]c2ccc(OC)cc12`, the “hERG current change (%, negative = inhibition) at 10uM” value was -4.57%.
As for `O=C(NC(NCc1ccccn1)(C(F)(F)F)C(F)(F)F)c1ccco1`, the “hERG current change (%, negative = inhibition) at 10uM” value is recorded as -1.88%.
Consider `N#C/C(=C\c1ccc(-c2ccccc2)cc1)c1nc(-c2ccco2)cs1`, for which the “hERG current change (%, negative = inhibition) at 10uM” value is on record as -1.39%.
As to `C=CCSc1nnc2n(-c3ccccc3OC)c(=O)c3c4c(sc3n12)CCC4`, the “hERG current change (%, negative = inhibition) at 10uM” value is given as -64.5%.
With `CC(=O)N1CCN(C(=O)CN2C(=O)NC(C)(c3ccc4ccccc4c3)C2=O)CC1` (stereo not drawn), the “hERG current change (%, negative = inhibition) at 10uM” value is listed as 16.7%.
Under `COc1cccc(CNC(=O)Cn2ccc3cc(S(=O)(=O)N4CCCCCC4)ccc32)c1` stands 4.25%; under `CC(C)(C)c1ccc(OCCNC(=S)Nc2ccccc2)cc1`, 8.17%; under `Cc1cc(C)cc(Nc2ccc3nonc3c2[N+](=O)[O-])c1`, -2.16%.
`CCOc1ccc(-c2nc3ccccc3c(=O)o2)cc1`: the “hERG current change (%, negative = inhibition) at 10uM” value is 14.4%.
Take `C[C@@]12CCC3[C@@](CC[C@@H]4[C@](C)(C(=O)O)CCC[C@@]34C)(C[C@H]1O)C2` (stereo partly drawn): the “hERG current change (%, negative = inhibition) at 10uM” value was found to be 11%.
In the case of `COc1cccc(NC(=O)C2COc3ccccc3O2)c1` (stereo not drawn), the “hERG current change (%, negative = inhibition) at 10uM” value amounted to 5.51%.
`COc1ccccc1N1C(=O)c2cccc3cccc(c23)C1=O`: the “hERG current change (%, negative = inhibition) at 10uM” value was found to be 11.9%.
On to `CN(C)C1(c2nnnn2-c2ccc(Cl)cc2)CCCCC1`, for which the “hERG current change (%, negative = inhibition) at 10uM” value is -6.33%.
For `O=C(NNC(=S)Nc1ccccc1C(F)(F)F)C1CC1`, the “hERG current change (%, negative = inhibition) at 10uM” value stood at 10.2%.
For `CNC(=S)Nc1ccc(-c2nc3ccc(C)cc3s2)cc1`, the “hERG current change (%, negative = inhibition) at 10uM” value is 14.1%.
On to `Cc1occc1C(=O)N1CCCC(N2CCN(c3cccc(Cl)c3)CC2)C1` (stereo not drawn), for which the “hERG current change (%, negative = inhibition) at 10uM” value was -29.7%.
`COc1ccc(CCNC(=O)CSc2ccc(-c3ccncc3)nn2)cc1`: the “hERG current change (%, negative = inhibition) at 10uM” value is -14.7%.
Consider `CO/N=C/NC(=O)c1c(OC)ccnc1Oc1ccc(Cl)cc1`, for which the “hERG current change (%, negative = inhibition) at 10uM” value is listed as -8.03%.
For the molecule `COc1ccccc1CC(=O)Nc1ccc(O)cc1C(=O)O`, the “hERG current change (%, negative = inhibition) at 10uM” value stood at 0.828%.
For the molecule `CN(CC(=O)Nc1cccc(F)c1)CC(=O)Nc1cc(S(=O)(=O)N2CCOCC2)ccc1Cl`, the “hERG current change (%, negative = inhibition) at 10uM” value is given as -45.8%.
With `CC(=O)Nc1c2c(nn1-c1ccccc1)CS(=O)C2` (stereo not drawn), the “hERG current change (%, negative = inhibition) at 10uM” value is 22.3%.
As for `Cc1ccccc1CN(C)CCS(=O)(=O)c1cc(Cl)ccc1Cl`, the “hERG current change (%, negative = inhibition) at 10uM” value amounted to 15.9%.
Regarding `CC(C)(C)Cn1c(=O)[nH]c(=O)c2cc([N+](=O)[O-])cnc21`, the “hERG current change (%, negative = inhibition) at 10uM” value came out at 1.73%.
In the case of `O=C(CN1C(=O)NC2(CCCC2)C1=O)NCCN1C(=O)S/C(=C\c2ccccc2F)C1=O`, the “hERG current change (%, negative = inhibition) at 10uM” value was -1.75%.
Regarding `CCc1ccccc1NC(=S)N(CCCN1CCOCC1)Cc1cccs1`, the “hERG current change (%, negative = inhibition) at 10uM” value was -53.5%.
For `CCCCNc1cc(NC(C)=O)cc2cc(OC)c(OC)cc12`, the “hERG current change (%, negative = inhibition) at 10uM” value is recorded as -5.09%.
In the case of `NS(=O)(=O)c1cc(C(=O)O)c(NCc2ccco2)cc1Cl`, the “hERG current change (%, negative = inhibition) at 10uM” value is given as 14.7%.
Turning to `COc1ccc(-c2noc(C3CCCN(C(=O)c4ccccc4)C3)n2)cc1` (stereo not drawn), the “hERG current change (%, negative = inhibition) at 10uM” value was -45.1%.
As to `CCCCNC(=O)c1cn(CC)c2cc(N3CCN(C(=O)c4ccco4)CC3)c(F)cc2c1=O`, the “hERG current change (%, negative = inhibition) at 10uM” value is listed as -33.8%.
As for `CCOC(=O)c1c(NC(=O)c2c(Br)cnn2C)c(C#N)nn1-c1ccccc1`, the “hERG current change (%, negative = inhibition) at 10uM” value was -12.2%.
With `COc1ccc(Cl)cc1Nc1nc(N)nc(C(F)(F)F)n1`, the “hERG current change (%, negative = inhibition) at 10uM” value is listed as -16.2%.
Take `Oc1c(C=C2N=c3ccccc3=N2)sc(=S)n1C1CCCCC1` [17505580]: the “hERG current change (%, negative = inhibition) at 10uM” value is reported as -2.3%.
For the molecule `COc1ccccc1OC(C)C(=O)N1CCc2ccccc21` (stereo not drawn), the “hERG current change (%, negative = inhibition) at 10uM” value is 1.29%.
Turning to `COc1ccc(N2CCN(C(=O)CCC(=O)N3CCOc4ccc(C)cc43)CC2)cc1`, the “hERG current change (%, negative = inhibition) at 10uM” value was -42.7%.
Consider `COc1c(C)cc(C(=O)C2CCCN(C(=O)/C=C/c3ccccn3)C2)cc1C` (stereo not drawn), for which the “hERG current change (%, negative = inhibition) at 10uM” value is given as -15.8%.
